Sequences and labels used below:
T1: RBFOX1 RRM RbFoxmut (Fox-RRM*) (Homo sapiens, UniProt Q9NWB1 109-208, R118D;E147R;N151S;E152T)
T1 sequence: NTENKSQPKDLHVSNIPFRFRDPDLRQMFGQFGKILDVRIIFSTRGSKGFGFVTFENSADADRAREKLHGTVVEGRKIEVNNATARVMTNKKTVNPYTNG

B1: GCAACGA (DNA:RNA)
RNA: GGGAGACCGGAAUUCAGAUUGUCCGCAACGAUUAAAUCCCGUCGUAGCCACCA
DNA 1: CAATCTGAATTCCGGTCTCCC
DNA 2: TGGTGGCTACGACGGGATT
B2: CAUGGAU (DNA:RNA)
RNA: GGGAGACCGGAAUUCAGAUUGUCCCAUGGAUUUAAAUCCCGUCGUAGCCACCA
DNA 1: CAATCTGAATTCCGGTCTCCC
DNA 2: TGGTGGCTACGACGGGATT
B3: CCGCUCA (DNA:RNA)
RNA: B1 RNA with G25C, A27G, A28C, C29U, G30C
DNA 1: CAATCTGAATTCCGGTCTCCC
DNA 2: TGGTGGCTACGACGGGATT
B4: CGCGACU (DNA:RNA)
RNA: B2 RNA with A26G, U27C, G29A, A30C
DNA 1: CAATCTGAATTCCGGTCTCCC
DNA 2: TGGTGGCTACGACGGGATT
B5: UCAACCC (DNA:RNA)
RNA: B1 RNA with G25U, G30C, A31C
DNA 1: CAATCTGAATTCCGGTCTCCC
DNA 2: TGGTGGCTACGACGGGATT
B6: CUUCGCA (DNA:RNA)
RNA: B2 RNA with A26U, G28C, A30C, U31A
DNA 1: CAATCTGAATTCCGGTCTCCC
DNA 2: TGGTGGCTACGACGGGATT
B7: GCGAAGC (DNA:RNA)
RNA: B1 RNA with A27G, C29A, A31C
DNA 1: CAATCTGAATTCCGGTCTCCC
DNA 2: TGGTGGCTACGACGGGATT
B8: CAGGUCU (DNA:RNA)
RNA: B2 RNA with U27G, G29U, A30C
DNA 1: CAATCTGAATTCCGGTCTCCC
DNA 2: TGGTGGCTACGACGGGATT
B9: GUACGGA (DNA:RNA)
RNA: B1 RNA with C26U, A28C, C29G
DNA 1: CAATCTGAATTCCGGTCTCCC
DNA 2: TGGTGGCTACGACGGGATT
B10: AAGUCUU (DNA:RNA)
RNA: B2 RNA with C25A, U27G, G28U, G29C, A30U
DNA 1: CAATCTGAATTCCGGTCTCCC
DNA 2: TGGTGGCTACGACGGGATT
B11: GACGUCA (DNA:RNA)
RNA: B2 RNA with C25G, U27C, G29U, A30C, U31A
DNA 1: CAATCTGAATTCCGGTCTCCC
DNA 2: TGGTGGCTACGACGGGATT
B12: GUAUGAA (DNA:RNA)
RNA: B1 RNA with C26U, A28U, C29G, G30A
DNA 1: CAATCTGAATTCCGGTCTCCC
DNA 2: TGGTGGCTACGACGGGATT
B13: CAAGGUA (DNA:RNA)
RNA: B2 RNA with U27A, A30U, U31A
DNA 1: CAATCTGAATTCCGGTCTCCC
DNA 2: TGGTGGCTACGACGGGATT
B14: CAUUACU (DNA:RNA)
RNA: B2 RNA with G28U, G29A, A30C
DNA 1: CAATCTGAATTCCGGTCTCCC
DNA 2: TGGTGGCTACGACGGGATT
B15: GGUCUGU (DNA:RNA)
RNA: B2 RNA with C25G, A26G, G28C, G29U, A30G
DNA 1: CAATCTGAATTCCGGTCTCCC
DNA 2: TGGTGGCTACGACGGGATT
B16: GGCGCGU (DNA:RNA)
RNA: B1 RNA with C26G, A27C, A28G, A31U
DNA 1: CAATCTGAATTCCGGTCTCCC
DNA 2: TGGTGGCTACGACGGGATT
B17: CGGGAUU (DNA:RNA)
RNA: B2 RNA with A26G, U27G, G29A, A30U
DNA 1: CAATCTGAATTCCGGTCTCCC
DNA 2: TGGTGGCTACGACGGGATT
B18: AGAUGUU (DNA:RNA)
RNA: B2 RNA with C25A, A26G, U27A, G28U, A30U
DNA 1: CAATCTGAATTCCGGTCTCCC
DNA 2: TGGTGGCTACGACGGGATT
B19: GCCACUG (DNA:RNA)
RNA: B1 RNA with A27C, G30U, A31G
DNA 1: CAATCTGAATTCCGGTCTCCC
DNA 2: TGGTGGCTACGACGGGATT
B20: CUGUUAC (DNA:RNA)
RNA: B2 RNA with A26U, U27G, G28U, G29U, U31C
DNA 1: CAATCTGAATTCCGGTCTCCC
DNA 2: TGGTGGCTACGACGGGATT

Where a chain is given by its changes, count along the chain named. Some of the results follow.

In this assay the target is T1, RBFOX1 RRM RbFoxmut (Fox-RRM*). Description: EMSA; HiTS-Eq, 1 nM pool, 10 min; buffer printed only for the single-RNA assays: 10 mM Tris pH 7.5, 150 mM NaCl, 3.4 mM EDTA, 0.001% NP-40, 30 C. To be noted: tags: His6 N-terminal (pET28a); label: 5' 32P. In short, it runs like this:
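A pool of RNA with 7 randomized nucleotides, 5′-radiolabelled and with DNA-annealed flanks, was equilibrated at 1 nM for 10 min in 50 µL with purified RbFox RRM, wild type or mutant, across increasing protein concentrations. Free RNA was separated by 8% native PAGE, excised, reverse-transcribed, barcoded by PCR and sequenced. Relative association constants were obtained from read-count changes of each RNA species versus the control reaction and normalised to the cognate motif.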
As to B1, the binding signal was 0.0556 KA relative to UGCAUGU.

B2: the binding signal is 0.0754 KA relative to UGCAUGU.

B3: the binding signal is 0.047 KA relative to UGCAUGU. For the molecule B4, the binding signal was 0.062 KA relative to UGCAUGU. To B5 belongs 0.0527 KA relative to UGCAUGU.

Turning to B6, the binding signal is 0.159 KA relative to UGCAUGU. The result for B7 reads 0.0658 KA relative to UGCAUGU. To B8 belongs 0.0783 KA relative to UGCAUGU; to B9, 0.0707 KA relative to UGCAUGU.

In the case of B10, the binding signal is 0.058 KA relative to UGCAUGU.

Take B11: the binding signal is 0.0995 KA relative to UGCAUGU. To B12 belongs 0.349 KA relative to UGCAUGU. Consider B13, for which the binding signal is 0.124 KA relative to UGCAUGU. To B14 belongs 0.139 KA relative to UGCAUGU; to B15, 0.215 KA relative to UGCAUGU. To B16 belongs 0.12 KA relative to UGCAUGU.

In the case of B17, the binding signal is 0.0693 KA relative to UGCAUGU. To B18 belongs 0.155 KA relative to UGCAUGU; to B19, 0.101 KA relative to UGCAUGU.

In the case of B20, the binding signal was 0.123 KA relative to UGCAUGU.

The values are drawn from PMC9911399, “Two distinct binding modes provide the RNA-binding protein RbFox with extraordinary sequence specificity”.
